The values below come from the supplement of paper PMC10338343.

± gives the standard deviation. In all, about 3,700 sequences were measured (“pre-steady-state target cleavage rate”: median about 0.02, highest 2% from about 0.23 on). Only a part is listed here, and it is no random draw.
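Further: 1 nM active piRISC with 0.1 nM target library at 33 °C single turnover.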

This test relates to MILI (PIWIL2) piRISC loaded with Kctd7 piRNA (26 nt). Description: pre-steady-state target cleavage rate (min^-1); MIWI and MILI are mouse PIWI proteins and EfPiwi is from a freshwater sponge; tags in brackets are library labels; higher = faster piRNA-guided slicing of the target. Conditions: guide: Kctd7 piRNA 5'p-UGUUAAUCUCUCAGAGAAGGUGACAG; auxiliary factor: 500 nM mouse GTSF1. In short, it runs like this: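 In this Cleave-'n-Seq assay, uncleaved targets were sequenced and normalised to depth and to weakly complementary targets. They came from a transcribed, DNA-blocked target RNA library […] mixed with 1 nM active affinity-purified piRISC carrying one synthetic guide, with or without 500 nM GTSF1 partner protein, in HEPES–potassium acetate buffer at 33 °C for 0–8 or 0–960 min. After three trials were pooled and k3 was capped at 0.0001 min^-1, the pre-steady-state cleavage rate was obtained from a burst-and-steady-state fit.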
Regarding UAGUGACAGUCCUACUCUGAGAGAUUAAGA, the “pre-steady-state target cleavage rate” value came out at 0.00576 ± 0.0017.

For the sequence UAGUGAGUCACCAUCUCUGACAGAUUAACA, the “pre-steady-state target cleavage rate” value was found to be 0.0409 ± 0.0068.

For the sequence UAGUCUGUCACCUUCUGAGAGAGAUUAUGA, the “pre-steady-state target cleavage rate” value came out at 0.00757 ± 0.0041.

Consider UAGUGACAGUGCUUCUCUGAGAGAUUAACCA, for which the “pre-steady-state target cleavage rate” value was found to be 0.0417 ± 0.0094.

With UAGUGUGUCACCUUCUCUGAGAGAUAAUCA, the “pre-steady-state target cleavage rate” value was found to be 0.067 ± 0.027.

For the sequence UAGUGACAGGCCUUCUCUGAGAGAUUAACA, the “pre-steady-state target cleavage rate” value was 0.0781 ± 0.011.

For the sequence UAGUGACAGACCUUCACUGAGACAUUAACA, the “pre-steady-state target cleavage rate” value worked out at 0.0282 ± 0.012.

On to UAGUGACUCACCUUCUCAGACAGAUUAACA, for which the “pre-steady-state target cleavage rate” value was 0.0331 ± 0.0054.

Regarding UAGUGACUCACCUUCUUGAGAGAUUAACA, the “pre-steady-state target cleavage rate” value was 0.00973 ± 0.0043.

Consider UAGUGACUCACCUUCUCUGAGAGUAAAACA, for which the “pre-steady-state target cleavage rate” value came to 0.0822 ± 0.017.

For UAGUGACAGUGCUUCUGUGAGAGAAUAACA, the “pre-steady-state target cleavage rate” value turned out to be 0.00758 ± 0.0036.

On to UAGUGACAGUCCUUCUCAGAGACAUUAACA, for which the “pre-steady-state target cleavage rate” value came to 0.012 ± 0.0037.

In the case of UAGUGACACACCUUCUCUGAGAGAUUAAA, the “pre-steady-state target cleavage rate” value came out at 0.142 ± 0.047.

Take UAGUGACACACCUUCUGUGUGAGAUUAACA: the “pre-steady-state target cleavage rate” value was found to be 0.0438 ± 0.011.

UAGUGUGUCACGCUUCUCUGAGAGAUUAACA: the “pre-steady-state target cleavage rate” value was 0.0959 ± 0.012.

UAGUGACAGUGGAAGAGACAGAGACUUAACA: the “pre-steady-state target cleavage rate” value is less than 0.0001.

UAGUGACACACUUCUCUGAGAGAUUAACA: the “pre-steady-state target cleavage rate” value was found to be 0.0505 ± 0.0059.

On to UAGUGUGUCACCUUGUCUGAGAGAUUUACA, for which the “pre-steady-state target cleavage rate” value amounted to 0.0644 ± 0.023.

As to UAGUCUGUCACCAUCUCUGAGACAUUAACA, the “pre-steady-state target cleavage rate” value was found to be 0.0315 ± 0.004.

Regarding UAGUGACAGUCCAUCUCUCAGAGAUUAACA, the “pre-steady-state target cleavage rate” value turned out to be 0.00455 ± 0.0032.

With UAGUCUCGUCACCUUCUCUGAGAGAUUAACA, the “pre-steady-state target cleavage rate” value came out at 0.209 ± 0.012.

As for UAGUGAGUGACCUUCUGUGAGAGAUUAACA, the “pre-steady-state target cleavage rate” value worked out at 0.128 ± 0.017.

With UAGUCUGUCACCUUCUCUGAGACUUUAACA, the “pre-steady-state target cleavage rate” value turned out to be 0.00995 ± 0.005.

As for UAGUGAGUCACCUUCUGUCAGAGAUUAACA, the “pre-steady-state target cleavage rate” value was determined as 0.0388 ± 0.0074.

UAGUGAGUCACCUUCUCUGACAGAUUAUCA: the “pre-steady-state target cleavage rate” value turned out to be 0.0134 ± 0.007.

In the case of UAGUGACUCACCUUCUCUGUGAGAUUAACA, the “pre-steady-state target cleavage rate” value stood at 0.0401 ± 0.0041.

UAGUGACAGACCUCUCUGAGAGAUUAACA: the “pre-steady-state target cleavage rate” value was found to be 0.0169 ± 0.0073.

With UAGUGAGACACCUUCUCUGAGACAUUAACA, the “pre-steady-state target cleavage rate” value stood at 0.0446 ± 0.0096.

With UAGUGACAGACCUUCUGUGAGAGUUUAACA, the “pre-steady-state target cleavage rate” value turned out to be 0.0388 ± 0.0085.

With UAGUGAGUCACCUUCUGUGAGAGAUUAAGA, the “pre-steady-state target cleavage rate” value stood at 0.0567 ± 0.02.

Turning to UAGUGUGUGACCUUCUCUGAGAGAUAAACA, the “pre-steady-state target cleavage rate” value was found to be 0.0935 ± 0.029.

Consider UAGUGAGUCACCUUCUCUGAGAGAUAUACA, for which the “pre-steady-state target cleavage rate” value was determined as 0.0915 ± 0.025.

Regarding UAGUGACAGUGGAUCUGUGAGAGAUUUACA, the “pre-steady-state target cleavage rate” value was less than 0.0001.

For the sequence UAGUGACUCAGGUUCUCUGAGAGAUUAACA, the “pre-steady-state target cleavage rate” value is 0.0267 ± 0.0065.

As to UAGUGACUCACCUCCUCUGAGAGAUUAACA, the “pre-steady-state target cleavage rate” value was determined as 0.14 ± 0.011.

For the sequence UAGUGACAGUGGAAGAGUGACAGUUUAACA, the “pre-steady-state target cleavage rate” value was less than 0.0001.

For UAGUGACACACCUACUCUGAGAGAUUAAGA, the “pre-steady-state target cleavage rate” value turned out to be 0.0352 ± 0.013.

As to UAGUGACACACCUUCUCUGAGAGAUUUUCA, the “pre-steady-state target cleavage rate” value came out at 0.064 ± 0.02.

As to UAGUGACAGUCCUUCUCUGAGAAGAUUAACA, the “pre-steady-state target cleavage rate” value was 0.0106 ± 0.0029.

Regarding UAGUGUGUCACCUUCUCUCAGUGAUUAACA, the “pre-steady-state target cleavage rate” value came to 0.00624 ± 0.0036.

UAGUGACUCACCUACUCUCAGAGAUUAACA: the “pre-steady-state target cleavage rate” value amounted to 0.0256 ± 0.0037.

Take UAGUGUGUCACCUUACUCUGAGAGAUUAACA: the “pre-steady-state target cleavage rate” value is 0.104 ± 0.0082.

UAGUCAGUCACCUUCUCUGAGAGAUUUACA: the “pre-steady-state target cleavage rate” value was determined as 0.172 ± 0.024.

For UAGUCUGUCACCUUCUCUGAGAGAGUUAACA, the “pre-steady-state target cleavage rate” value is 0.297 ± 0.035.

For UAGUGACACACCUUCUCUGCGAGAUUAACA, the “pre-steady-state target cleavage rate” value came out at 0.0905 ± 0.017.

Consider UAGUGACACACGUUCUCUGUGAGAUUAACA, for which the “pre-steady-state target cleavage rate” value is 0.0289 ± 0.0047.

Turning to UAGUGACUCACCUUCUCUGAGAGAUUAACCA, the “pre-steady-state target cleavage rate” value was determined as 0.121 ± 0.0086.

Consider UAGUGAGUCACGAUCUCUGAGAGAUUAAGA, for which the “pre-steady-state target cleavage rate” value is 0.0429 ± 0.013.

Consider UAGUCUGUCAGCAUCUCUGAGAGAUUAACA, for which the “pre-steady-state target cleavage rate” value is 0.112 ± 0.0069.

As for UAGUGACAGUCCUUCACUGAGACAUUAACA, the “pre-steady-state target cleavage rate” value amounted to 0.00652 ± 0.0032.

In the case of UAGUGACAGUGGUUAUCUGAGAGAUUAACA, the “pre-steady-state target cleavage rate” value stood at 0.00401 ± 0.0025.

Take UAGUGUGUGACCUUCUCUGAGAGAUUAUCA: the “pre-steady-state target cleavage rate” value was 0.0873 ± 0.019.

In the case of UAGUGACUCUCCUUCUCUGAGAGAUUUACA, the “pre-steady-state target cleavage rate” value was 0.082 ± 0.013.

As to UAGUGUGUCACCUUCUUCUGAGAGAUUAACA, the “pre-steady-state target cleavage rate” value is 0.039 ± 0.011.

For the sequence UAGUGACAGUGGUUCUCUGAGGGAUUAACA, the “pre-steady-state target cleavage rate” value was 0.00379 ± 0.0018.

As to UAGUGACACACCUUCACUGAGAGUUUAACA, the “pre-steady-state target cleavage rate” value was found to be 0.0427 ± 0.017.

Regarding UAGUCUGUCACCUUCUCUGAGAGAUUACCA, the “pre-steady-state target cleavage rate” value was determined as 0.163 ± 0.03.

For UAGUCUCUCACCUUCUCUGUGAGAUUAACA, the “pre-steady-state target cleavage rate” value turned out to be 0.0394 ± 0.0057.

As for UAGUGACACACCUUCUCAGAGAGAUUAUCA, the “pre-steady-state target cleavage rate” value turned out to be 0.0524 ± 0.017.

For UAGUGAGUCACAUUCUCUGAGAGAUUAACA, the “pre-steady-state target cleavage rate” value worked out at 0.183 ± 0.014.

As to UAGUGUGUCACCUUCUCAGAGAGAUUAAGA, the “pre-steady-state target cleavage rate” value turned out to be 0.106 ± 0.028.

Regarding UAGUGACAGACCUUCUCUGAUGAGAUUAACA, the “pre-steady-state target cleavage rate” value was 0.00458 ± 0.0044.

UAGUCAGUCACCUUCACUGAGAGAUUAACA: the “pre-steady-state target cleavage rate” value amounted to 0.15 ± 0.017.

As for UAGUGACUCACCUUCUGUGAGAGAUUAUCA, the “pre-steady-state target cleavage rate” value was found to be 0.00563 ± 0.0023.

On to UAGUGACUGCACCUUCUCUGAGAGAUUAACA, for which the “pre-steady-state target cleavage rate” value turned out to be 0.184 ± 0.011.

For the sequence UAGUCUGUCUGGUUCUCUGAGAGAUUAAGA, the “pre-steady-state target cleavage rate” value was 0.0119 ± 0.0022.

For UAGUGACUCACCUUCUCUGAAAGAUUAACA, the “pre-steady-state target cleavage rate” value was found to be 0.0754 ± 0.008.

In the case of UAGUGACAGACCUACUCUGACAGAUUAACA, the “pre-steady-state target cleavage rate” value came to 0.00701 ± 0.0032.

As for UAGUGACUCACCUUCCUGAGAGAUUAACA, the “pre-steady-state target cleavage rate” value was determined as 0.00513 ± 0.0042.

For UAGUGUGUCACCUUCUCUCAGAGAAUAACA, the “pre-steady-state target cleavage rate” value was 0.00934 ± 0.0054.

As to UAGUGACACACCUUCUCAGAGAGAUUAACA, the “pre-steady-state target cleavage rate” value is 0.14 ± 0.019.

For the sequence UAGUGACACACCUUGUCUCAGAGAUUAACA, the “pre-steady-state target cleavage rate” value came to 0.0231 ± 0.0047.
